Hit rate of the full screen: of about 310,000 compounds, about 14,000 (4.5%) showed an effect of 50% or more. Effects have a minus sign here. The list shows a part of the results.
target: human ether-à-go-go-related gene (hERG) potassium channel (human, UniProt Q12809); assay: primary screen, population patch clamp on CHO cells stably expressing hERG
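Also: peak tail current of the secondary pulse compared with the same well before compound.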

Sequence of human ether-à-go-go-related gene (hERG) potassium channel (Q12809 whole entry, looked up): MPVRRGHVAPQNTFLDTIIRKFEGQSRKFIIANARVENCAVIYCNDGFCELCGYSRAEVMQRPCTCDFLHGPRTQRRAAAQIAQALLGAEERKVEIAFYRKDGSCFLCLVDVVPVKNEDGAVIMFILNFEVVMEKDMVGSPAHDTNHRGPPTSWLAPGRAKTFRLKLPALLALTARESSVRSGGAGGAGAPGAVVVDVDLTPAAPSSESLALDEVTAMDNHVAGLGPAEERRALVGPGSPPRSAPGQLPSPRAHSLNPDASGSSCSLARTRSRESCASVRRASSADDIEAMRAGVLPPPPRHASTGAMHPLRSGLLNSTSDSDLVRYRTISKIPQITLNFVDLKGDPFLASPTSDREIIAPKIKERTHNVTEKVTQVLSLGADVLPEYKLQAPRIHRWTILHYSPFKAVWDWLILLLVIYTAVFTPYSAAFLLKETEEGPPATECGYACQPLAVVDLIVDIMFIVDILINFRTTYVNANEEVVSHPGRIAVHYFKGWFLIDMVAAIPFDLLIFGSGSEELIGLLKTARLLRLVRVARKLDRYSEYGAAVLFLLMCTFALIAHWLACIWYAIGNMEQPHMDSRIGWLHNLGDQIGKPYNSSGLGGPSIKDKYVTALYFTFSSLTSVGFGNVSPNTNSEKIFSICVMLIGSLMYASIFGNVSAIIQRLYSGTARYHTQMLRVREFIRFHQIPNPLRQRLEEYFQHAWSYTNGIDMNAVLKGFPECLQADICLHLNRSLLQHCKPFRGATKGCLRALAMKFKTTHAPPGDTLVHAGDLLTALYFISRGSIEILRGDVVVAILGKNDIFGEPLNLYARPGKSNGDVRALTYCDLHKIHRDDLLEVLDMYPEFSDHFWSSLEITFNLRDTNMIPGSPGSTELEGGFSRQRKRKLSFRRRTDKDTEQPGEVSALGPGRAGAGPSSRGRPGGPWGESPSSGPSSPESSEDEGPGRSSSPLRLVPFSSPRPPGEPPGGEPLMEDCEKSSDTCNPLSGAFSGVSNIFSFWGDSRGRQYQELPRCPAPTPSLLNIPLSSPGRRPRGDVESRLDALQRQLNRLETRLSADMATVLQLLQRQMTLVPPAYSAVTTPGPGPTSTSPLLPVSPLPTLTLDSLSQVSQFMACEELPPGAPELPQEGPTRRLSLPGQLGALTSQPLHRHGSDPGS

| SMILES | hERG current change (%, negative = inhibition) at 10uM |
| --- | --- |
| COc1ccc(CNC(=O)CN(c2ccc(C)cc2)S(=O)(=O)c2c(C)nn(C)c2C)cc1 | -7.82% |
| Cc1c(CCOC(=O)c2ccccc2)sc[n+]1CC(=O)c1ccc(Br)cc1.[Br-] | -77% |
| Cn1c(=O)c2c(-c3cccc(Br)c3)c(C#N)c(N)nc2n(C)c1=O | -32.5% |
| CC1CCN(CCCOc2ccc(Br)cc2Cl)CC1 | -72.8% |
| COc1ccc(CCn2c(O)c(C=Nc3ccc(NC(C)=O)cc3)c(=O)[nH]c2=O)cc1OC | 27.6% |
| CCCC(=O)Nc1ccc(NC(=O)c2cc3ccccc3o2)c(OC)c1 | 16.2% |
| O=c1nc2sc3ccccc3n2c(=O)n1-c1ccc(Cl)cc1 | 22.1% |
| O=C1N(Cc2cccc(Cl)c2)C[C@@H]2C[C@@H](c3cccn3-c3cccnc3)N3CCC[C@@]123 | -35.7% |
| CCC(C)(C)NC(=O)C(c1ccc(OC)cc1)N(C(=O)CCC(=O)Nc1cc(C)on1)C1CC1 (centres unmarked) | -13.9% |
| COc1cc(OC)cc(C(=O)NNC(=O)CNC(=O)c2cccs2)c1 | 18.9% |
| CCC(C(=O)NCc1cccnc1)n1nc(C)n2c(cc3occc32)c1=O (centres unmarked) | 1.55% |
| Cc1cccc(NC(=O)CSCC(=O)OCc2ccccn2)c1 | 16.7% |
| CN1CCN(C(=O)CCN2C(=O)/C(=C\c3ccc(Cl)cc3)SC2=S)CC1 | 8.83% |
| O=C(Nc1ccc(F)cc1)NC1CCCCCCC1 | 25.4% |
| Cc1cc(=O)oc2cc(NC(=O)CCCC(=O)O)ccc12 | 15.1% |
| COC(=O)COc1ccc(S(=O)(=O)NCCC2=CCCCC2)cc1C | -4.62% |
| O=C(COC(=O)c1ccco1)NCc1ccccc1Cl | -7.78% |
| CCC1Oc2ccc(C)cc2N(CC(=O)NCc2cc(OC)ccc2OC)C1=O (centres unmarked) | 4.61% |
| COc1ccc(/C=N/Nc2nc(=O)[nH]nc2C)cc1[N+](=O)[O-] | 8.39% |
| COc1ccc(CCN(CC(=O)NCc2ccc(F)cc2)C(=O)c2snc(C(N)=O)c2N)cc1OC | -26.4% |
| COc1ccc(-c2cc(C(F)(F)F)n3nc(C(=O)N(C)Cc4ccccc4)cc3n2)cc1OC | -11.5% |
| Cl.O=C(CN1CCOCC1)Nc1ccc(OC(F)(F)F)cc1 | -8.1% |

| SMILES | hERG current change (%, negative = inhibition) at 10uM |
| --- | --- |
| CCc1cc(C(=O)N2CCCc3ccccc32)sc1C | 5.61% |
| COc1ccc(Nc2ncnc3ccc(C)cc23)cc1 | -3.17% |
| Cc1nc2cc(-c3cccc(F)c3)nn2c(C)c1CCC(=O)NC(C)c1ccc2c(c1)OCCO2 (centres unmarked) | -44.6% |
| Cc1cccc(-n2c(SCc3ccc(C#N)cc3)nnc2-c2c[nH]c3ccccc23)c1 | 12.1% |
| CCOC(=O)N1CCC(NC(=O)c2ccc3c(c2)N=C(C)c2ccccc2S3)CC1 | -9.41% |
| Cc1cc(NC(=O)CSCC(=O)N(C)Cc2cccc(Cl)c2)no1 | -6.09% |
| CC(C)c1c(C#N)c(N)nc(SCC(=O)c2cc3ccccc3oc2=O)c1C#N | 6.19% |
| Cc1ccc(S(=O)(=O)c2nc(S(=O)(=O)CCO)sc2N2CCOCC2)cc1 | 7.88% |
| COc1ccc(CCN2C(=O)NC(NS(=O)(=O)c3ccc(NC(C)=O)cc3)(C(F)(F)F)C2=O)cc1OC (centres unmarked) | -5.28% |
| CCc1ccc(N2CC(C(=O)NCc3ccc4c(c3)OCO4)CC2=O)cc1 (centres unmarked) | -9.87% |
| Cc1ccccc1NC(=O)c1ccc(C)c(S(=O)(=O)Nc2cccnc2)c1 | 1.76% |
| CC(=O)c1cccc(NS(=O)(=O)c2c(C)noc2C)c1 | 12% |
| Cc1ccc(-n2c(SCC(=O)N/N=C/c3c(C)nn(-c4ccccc4)c3C)nc3ccccc3c2=O)cc1 | -7.33% |
| COc1cccc(OCC(=O)Nc2cc(NC(=O)COc3cccc(OC)c3)cc(C(=O)O)c2)c1 | 17% |
| CN(C(=O)CSc1nnnn1-c1ccc(O)cc1)C1CCS(=O)(=O)C1 (centres unmarked) | 14.8% |
| CCCCNC(=O)N1CCN(c2ncccn2)CC1 | 3.43% |
| CCc1ccc(N2C(=O)NC(=O)/C(=C\c3cc(C)n(-c4cc(C(=O)O)cc(C(=O)O)c4)c3C)C2=O)cc1 | 14.6% |
| CCOc1ccc2nc(NC(NC(C)=O)(C(=O)OC)C(F)(F)F)sc2c1 (centres unmarked) | -13.2% |
| Cc1ccsc1/C=C/c1ccc2cccc(O)c2n1 | 9.25% |
| N=c1oc2cc(O)ccc2cc1C(=O)Nc1ccc(Cl)cc1 | 20.2% |
| CCCNC(=O)NC(=O)COC(=O)/C=C/c1cc(Br)ccc1F | -3.46% |
| CCC(=O)Nc1nc(-c2ccccc2)nc(SC)c1C(C)=O | 9.52% |

| SMILES | hERG current change (%, negative = inhibition) at 10uM |
| --- | --- |
| O=C(Nc1ccccc1)O/N=C/c1ccc(F)cc1 | -28.6% |
| COc1ccc(S(=O)(=O)NCC2CCCN(Cc3ccc(C)o3)C2)cc1 (centres unmarked) | -25.5% |
| Cc1ccc2nc(SCC(=O)N3CCN(c4ccccc4)CC3)nc(=O)n2c1 | -47.5% |
| CC(C)Cc1nn2c(=O)cc(CSCC(=O)Nc3ccccc3F)nc2s1 | -19.2% |
| COC(=O)c1ccc(-n2c(C)cc(C(=O)CSc3ccc(NC(C)=O)cc3)c2C)cc1 | 9.5% |
| CCC12CN3CCN(CC(C3)/C1=N\NC(=O)Nc1ccccc1)C2 | -10.4% |
| Cc1cc(N2CCOCC2)n2cc(-c3ccccc3)nc2n1 | -50.1% |
| COc1ccccc1C(=O)NCCC(=O)N1CCN(c2cccc(C(F)(F)F)c2)CC1 | -21.7% |
| COC(=O)C1=C(C)N(c2ccc(C)c(C)c2)/C(=C/c2cccs2)C1=O | -17.7% |
| COc1ccc(S(=O)(=O)N2CCN(c3ncccn3)CC2)cc1[N+](=O)[O-] | -14% |
| O=C(NC1=NCCS1)C1CC(=O)N(c2ccccc2)C1 (centres unmarked) | 5.57% |
| Cn1cc2cccc([N+](=O)[O-])c2n1 | 2.69% |
| CCOc1ccc(/C=N/NC(=S)NC2CC3CCC2C3)cc1 (centres unmarked) | 8.01% |
| CCOC(=O)c1nc(C)sc1-c1ccnn1S(=O)(=O)c1ccc(C)cc1 | -33.1% |
| Cc1ccc(CCNC(=O)CCNS(=O)(=O)c2ccc3c(c2)c(=O)n(C)c(=O)n3C)cc1 | 9.8% |
| CCc1nc(SCc2ccc(F)cc2)[nH]c(=O)c1C#N | 17.8% |
| CC(C)(C)NC(=O)c1sccc1C(=O)O | 11.3% |
| Cc1cccc(-n2nc3c(c2NC(=O)c2ccco2)CS(=O)C3)c1C (centres unmarked) | 7.5% |
| CCCS(=O)(=O)N1CCCC(C(=O)NCCCN(C)c2ccccc2)C1 (centres unmarked) | 5.82% |
| CC(=O)c1ccc(-n2cc(C#N)c(=O)[nH]c2=O)cc1 | 18.9% |
| O=[N+]([O-])c1cccc(C2N3CCCN23)c1 (centres unmarked) | 12.3% |
| COCc1nc2ccccc2n1Cc1ccccc1Br | -16.7% |

| SMILES | hERG current change (%, negative = inhibition) at 10uM |
| --- | --- |
| Cc1cc(C(=O)CSc2nnc(-c3cccnc3)n2-c2ccccc2F)c(C)n1CC1CCCO1 (centres unmarked) | -16.7% |
| CC(=O)NCc1cc(-c2ccc(Cl)cc2)no1 | -4.31% |
| COc1ccc(C(=O)NC(=S)Nc2ccccc2N2CCOCC2)cc1[N+](=O)[O-] | 2.73% |
| C[C@@]12C(=O)N(CC3CC3)CC(=O)N1[C@H](C1CC1)[C@@H]1C(=O)N(c3ccccc3)C(=O)[C@@H]12 | -11.1% |
| O=C(COc1ccc(S(=O)(=O)NC2CCCCC2)cc1Cl)N1CCN(c2ccccc2)CC1 | -13.8% |
| Cc1cc(N(C)N)nc(NC(=O)NS(=O)(=O)c2ccccc2Cl)n1 | 7.58% |
| N#C/C(=C\c1ccncc1)c1nc2c(s1)CCCC2 | -3.44% |
| CCCOc1ccc(CC(=O)NCC2(c3ccccc3)CCOCC2)cc1OC | -4.73% |
| COc1cc(SC)ccc1C(=O)Nc1c(C)cccc1C | -18.3% |
| CN(C)C(=O)CSc1nc2ccccc2c(=O)[nH]1 | 22% |
| O=C(CCNS(=O)(=O)c1ccccc1)OCc1nc2ccsc2c(=O)[nH]1 | -27.2% |
| Cc1ccc(-n2c(C)cc(/C=N/NC(=O)c3ccncc3)c2C)cc1 | -9.86% |
| Cc1cc(C)c(OCC(=O)N2CC=C(c3ccccc3)CC2)c(C)c1 | 7.93% |
| CC(C)c1ccc(NC(=O)C2CC2c2ccccc2)cc1 (centres unmarked) | 2.78% |
| Cc1cc(C(=O)NC2CCCc3c2cnn3-c2ccc(C)c(C)c2)no1 (centres unmarked) | -42.9% |
| O=C(CSc1ccc2nnc(-c3ccccn3)n2n1)Nc1cccc(F)c1 | -40.6% |
| Cc1cc(C)n2nc(C(=O)N3CCCC(Nc4ccc(C(C)C)cc4)C3)cc2n1 (centres unmarked) | -3.37% |
| COc1cccc(OC)c1CNC(=O)C1CCC(=O)N(CC2CCCCC2)C1 (centres unmarked) | -2.94% |
| NC(=O)c1ccc(NC(=O)CCCNC(=O)c2ccc(Cl)cc2)cc1 | 11.9% |
| Cl.Clc1cccc2c3c([nH]c12)CCNC3 | 9.81% |
